Self-cleavage data for 34 variants are collected here from the RNAGym collection of RNA variant scans (doi:10.1093/nar/gkz1192).

Read counts are not given, so values of variants with three or more changes are uncertain.

Sequences and labels used below:
B1: CPEB3 Ribozyme (parent)
chain: UAACAGGGGGCCACAGCAGAAGCGUUCACGUCGCAGCCCCUGUCAGAUUCUGGUGAAUCUGCGAAUUCUGCUGUAUAUCUC

This series covers variants of B1. Kind of series: self-cleavage, relative activity (ratio to wild type); higher = more cleavage; in vitro, sequencing. The procedure, abridged:
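Barcoded CPEB3 ribozyme mutants, produced by rounds of error-prone PCR, self-cleaved while being transcribed with T7 RNA polymerase for 5 hours at 37°C and during a subsequent 15 min DNase I step before EDTA was added. Sequencing of template-switched cDNA on Illumina gave cleaved and total reads, and DNA sequencing assigned barcodes to variants. Each variant's relative activity is its cleaved/total read fraction divided by the unmutated ribozyme's fraction, averaged across three batches. A variant needed a minimum of 5 reads.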
Regarding UAACAGGGGGCCACAGCAGAAGCGUCCGCGUUGCAGCCCCUGUCAGAUUCUGGUGAAACUGCGAAUUCUGCUGUACAUCCC [U26C A28G C32U U58A U76C U80C], the self-cleavage was determined as 0.09.

Turning to UAACAGGGGGCCACAGCAGAAGCGUACACGUCGCAGCCCCCAUCUGAUUCUGGUGAAUCUGCGAAUUCUGCUGUAUAUCUC [U26A U41C G42A A45U], the self-cleavage came out at 0.41.

Take UAACAGGGGGCCACAGCAGAAGCGUACACGUCGCAGCCCCUGUCAGAUUCUGGUGAACCUGCGAGUACUGCUGUAUAUCUC [U26A U58C A65G U67A]: the self-cleavage worked out at 0.15.

UAACAGGGGGCCACAGCAGAAGCGUACACGUCGCAGCCCCUGUCAGAUACUGGUGAAUCUGCGAACUCUGCUGUAUAUCUC [U26A U49A U66C]: the self-cleavage was determined as 0.16.

In the case of UAACAGGGGGCCACAGCAGAAGCGUCCGCGUCGCAGCCCCUGUCAGAUUCUGGUGAACCUGCGAAUUCUGAUGUAUAUCCC [U26C A28G U58C C71A U80C], the self-cleavage was 0.12.

Take UAACAGGGGGCCACAGCAGAAGCGUCCGCGUCGCAGCCCCUGUCAGAUUCUGGUGAAUCAGCGAAUUCUGCUCUAUAUCUC [U26C A28G U60A G73C]: the self-cleavage stood at 0.17.

Turning to UAACAGGGGGCCACAGCAGAAGCGUCCUCCUCGCAGCCCCUGUCAGAUUCUGGUGAAUCUGCGAAUUCUGCUGUAUAUCUC [U26C A28U G30C], the self-cleavage is 0.16.

As for UAACAGGGGGCCACAGCAGAAGCGUACACGUCGCAGCCCCUGCCAGACUCUGGUGAAACAGCGAAUUCUGCGGUAUAUCUC [U26A U43C U48C U58A U60A U72G], the self-cleavage was 0.1.

As for UAACAGGGGGCCACAGCAGAAGCGUACACGUCGCAGCCCCUGUCAGAUCCUGGUGAAUCUGCGAAUUCUGCUGUACAUCUC [U26A U49C U76C], the self-cleavage amounted to 0.22.

On to UAACAGGGGGCCACAGCAGAAGCGUACACGUCGCAGCCCCUGUCAGAUUCUGGAGAAUCAGCGAUUCCUGCUGUAUAUCUC [U26A U54A U60A A65U U67C], for which the self-cleavage is 0.36.

In the case of UAACAGGGGGCCACAGCAGAAGCGUACACGUCGCAGCCCCUGUCAGAUUCUGGUGAAUCUGCAAAUCCUGCUGUAUAUCUC [U26A G63A U67C], the self-cleavage was 0.25.

With UAACAGGGGGCCACAGCAGAAGCGUACACGUCGCAGCCCCUGUCAGAUUCUGGUGAAUCUGCAAAUACUGCUGUAUAUCUC [U26A G63A U67A], the self-cleavage turned out to be 0.29.

UAACAGGGGGCCACAGCAGAAGCGUCCACGUCGCGGCCCCUGUCAGAUUCUGGUGAAUCUGCGAAUUCAGCUGUAUAUCUC [U26C A35G U69A]: the self-cleavage amounted to 0.61.

As for UAACAGGGGGCCACAGCAGAAGCGUCCGCGUCGCAGCCCCUGUCAGAUUCUGGUGAAUCGGCGAAUUCUGCUGUAUAUCUC [U26C A28G U60G], the self-cleavage was found to be 0.15.

Turning to UAACAGGGGGCCACAGCAGAAGCGUACACGUCGCAGCCCCCGUCAGAUUCUGGUGUAUCCGCGAAUUCUGCUGUAUACCUC [U26A U41C A56U U60C U78C], the self-cleavage worked out at 0.16.

Turning to UAACAGGGGGCCACAGCAGAAGCGUCCACGUCGCGGCUCCUGUCAGAUUCUAGUGAAUCUGCGAAUUCUGCUGUAUAUCUC [U26C A35G C38U G52A], the self-cleavage was determined as 1.1.

UAACAGGGGGCCACAGCAGAAGCGUACACGUCGCAGCCCCCGUCAGAUUCGGGUGAAUCUGCGAAUUCAGCUGUAUAUCAC [U26A U41C U51G U69A U80A]: the self-cleavage was determined as 0.39.

As for UAACAGGGGGCCACAGCAGAAGCGUCCGCGUCGCGGCCCCUGUCAGAUUCUGGUGAAUCUGCGAAUUCUGCCGUAUAUCUC [U26C A28G A35G U72C], the self-cleavage came out at 0.81.

As to UAACAGGGGGCCACAGCAGAAGCGUACACGACGCAGCCCCCGUCAGCCUCUGGUGAAUCUGCGAAUUCUGCUGUAUAUCAC [U26A U31A U41C A47C U48C U80A], the self-cleavage turned out to be 0.05.

In the case of UAACAGGGGGCCACAGCAGAAGCGUACACGUCGCAGCCCCUGUCAGAUCCUGGUGAAUCUGCGAACUCUGCUGUAUAUCUC [U26A U49C U66C], the self-cleavage was found to be 0.11.

With UAACAGGGGGCCACAGCAGAAGCGUACACGUCGCAGCCCCUGUCAGAAUCCGGUGAAUCUGCGAAUUCUGCUGUAUAUCUC [U26A U48A U51C], the self-cleavage is 0.19.

With UAACAGGGGGCCACAGCAGAAGCGUACACGUCGCAGCCCCUGUCAGAUCCUGGGGGAUCUGCGAAUUCUGCUGUAUAUCUC [U26A U49C U54G A56G], the self-cleavage amounted to 0.64.

Regarding UAACAGGGGGCCACAGCAGAAGCGUACACGUCGCAGCCCCUGUCAGAUCCUGGGGAAUCUGCGAGUUCUGCUGUAUAUCUC [U26A U49C U54G A65G], the self-cleavage turned out to be 0.07.

Consider UAACAGGGGGCCACAGCAGAAGCGUACACGUCGCAGCCCCUGCCAGAUUCUGGAGAAUCUGCGAAUUCUGCGGUAUAUCUC [U26A U43C U54A U72G], for which the self-cleavage came out at 0.31.

With UAACAGGGGGCCACAGCAGAAGCGUACACGUCGCAGCCCCUGUCAGAUUCUGGAGAAUCUGCGAAUUCUGCUGUAUACCUC [U26A U54A U78C], the self-cleavage amounted to 0.87.

Regarding UAACAGGGGGCCACAGCAGAAGCGUCCACGUCGCGGCCCCUGCCAGAUUCUGGUGAAUCUGCGAAUUCUGCUGUAUAUCUC [U26C A35G U43C], the self-cleavage was found to be 1.25.

Take UAACAGGGGGCCACAGCAGAAGCGUCCGCGUCGCAGCCCCCGUCAGAUUCUGGUGAAUCUGCGAAUCCUGCUGUAUAUCUC [U26C A28G U41C U67C]: the self-cleavage is 0.37.

On to UAACAGGGGGCCACAGCAGAAGCGUACACGUCGCAGCCCCUGCCAGAUUCCGGUGAAUCUGCGAAUUCUGCUGUUUAUCUC [U26A U43C U51C A75U], for which the self-cleavage was determined as 0.15.

In the case of UAACAGGGGGCCACAGCAGAAGCGUACACGACGCAGCCCCUGUCGGAUUCUGGUGAAUCUGCGAAUUCUGCUGUAUAUCUC [U26A U31A A45G], the self-cleavage was 0.32.

As to UAACAGGGGGCCACAGCAGAAGCGUCCACGUCGCGGCCCCUGUCAGAUUCUGGUGUAUCUGCGAAUCCUGCUGUAUAUCUC [U26C A35G A56U U67C], the self-cleavage amounted to 0.43.

With UAACAGGGGGCCACAGCAGAAGCGUCCGCGUCGCAGCCCCUGUCAGAUUCUGGUGGAUCUGCGAAUUCUGCUGUAUAUCUC [U26C A28G A56G], the self-cleavage amounted to 0.18.

For UAACAGGGGGCCACAGCAGAAGCGUCCGCGCCGCAGCCCCUGUCAGAUUCUGGCGAACCUGCGAAUUCUGCUGUACAUCCC [U26C A28G U31C U54C U58C U76C U80C], the self-cleavage was 0.17.

As to UAACAGGGGGCCACAGCAGAAGCGUACACGACGCAGCCCCUGUCAGAUUCUGGUGAAUCUGCGAACUCUGCUGUAUAUCUC [U26A U31A U66C], the self-cleavage came to 0.08.

As for UAACAGGGGGCCACAGCAGAAGCGUCCGCGUCGCAGCCCCUGUCAGAUUCUGGUGAAUCCGCGAACUCCGCUGUAUAUCUC [U26C A28G U60C U66C U69C], the self-cleavage is 0.09.
